Source: PubChem BioAssay AID485344 (National Center for Advancing Translational Sciences (NCATS), 2010)
Values joined by “and” are separate entries in the source; they are usually repeats but may differ in a detail not shown here. Equal entries are not always repeated. Screen size: about 340,000 compounds; about 6,900 (2%) were called active. No stated cut-off is given here; in the data, active means inhibition above about 30%; inactive means below that, where a call was filed. The list shows a part of the results, in another mix than the full data. Where no call is shown, the source filed none.

Target: D(2) dopamine receptor (Homo sapiens) (UniProt P14416)
Sequence of UniProt P14416 (P14416 whole entry, looked up): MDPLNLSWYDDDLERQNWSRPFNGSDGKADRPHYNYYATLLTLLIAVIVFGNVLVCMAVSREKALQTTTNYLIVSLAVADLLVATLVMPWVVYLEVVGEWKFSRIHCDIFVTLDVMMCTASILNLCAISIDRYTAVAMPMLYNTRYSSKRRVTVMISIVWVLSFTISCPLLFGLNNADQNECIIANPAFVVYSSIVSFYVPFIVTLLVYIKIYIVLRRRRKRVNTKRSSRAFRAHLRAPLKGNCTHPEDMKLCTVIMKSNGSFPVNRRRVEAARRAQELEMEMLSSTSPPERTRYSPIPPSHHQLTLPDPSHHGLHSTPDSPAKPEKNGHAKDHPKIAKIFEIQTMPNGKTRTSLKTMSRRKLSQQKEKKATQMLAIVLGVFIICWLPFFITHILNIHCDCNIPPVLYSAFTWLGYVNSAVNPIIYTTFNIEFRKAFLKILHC
Test: HTS Assay for Allosteric Antagonists of the Human D2 Dopamine Receptor: Primary Screen for Antagonists; further: 0% is about no effect
Conditions: HEK293 TREx D2 cells, calcium flux, dopamine EC80; at 10 µM; stronger effect = higher value
How it was run: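 Inhibition of EC80 dopamine-driven calcium flux, recorded kinetically, defines activity here; cells are a tetracycline-induced HEK293 T-REx line expressing force-coupled D2.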

Structure (SMILES) | inhibition
CCc1ccc2oc(-c3cccc(NC(=O)c4ccc(-c5cccc([N+](=O)[O-])c5)o4)c3)nc2c1 | 0.229%
Cc1cccc(OC(C)C(=O)N2CCC(c3nc4ccccc4o3)CC2)c1C (centres undefined) | 6.68%
CC1=C(C(=O)Nc2ccc(Cl)cc2)C(c2cccs2)n2nc(SCc3cccc(Cl)c3)nc2N1 (centres undefined) | 1.73%
CCn1c(Oc2ccc(F)cc2F)nc2c1c(=O)n(C)c(=O)n2C | -16.5%
CCOc1ccc(CC(=O)Nc2c(C(=O)c3ccc(Cl)cc3)oc3ccccc23)cc1OCC | -5.83%
Cc1cccc(S(=O)(=O)c2cn(Cc3ccccc3)c3cc(N4CCC(C)CC4)c(F)cc3c2=O)c1 | 19.8%
Cc1cccc(NC(=O)CCNS(=O)(=O)c2cccc3nonc23)c1C | active: 30.7%
CCC1=Nc2cc(C(=O)NCCc3ccccc3)ccc2Sc2ccc(Cl)cc21 | -1.12%
CCc1cc2c(cc3c(=O)n(CC(=O)NCc4cccc(Cl)c4)nc(CC)n32)s1 | -2.92%
COc1ccc(-n2nc3cc(C)c(NC(=O)COc4cccc(C)c4)cc3n2)cc1 | -0.495%
COc1cccc(OCc2nc3ccccc3n2Cc2ccccc2)c1 | -14.8%
COc1cccc(CNC(=O)C(=O)NCC(c2cccs2)S(=O)(=O)c2cccs2)c1 (centres undefined) | 6.9%
CCC(C)c1ccccc1N1CC(C(=O)N2CCN(S(=O)(=O)c3cccc([N+](=O)[O-])c3)CC2)CC1=O (centres undefined) | active: 35.8%
Cc1cc(S(=O)(=O)Nc2cc3c(cc2C)n(C)c(=O)c(=O)n3C)ccc1F | 1.32%
Cc1ccccc1NC(=O)CSc1ncc2c(n1)-c1ccccc1N(C)S2(=O)=O | 6.04%
Cc1cn2c(=O)cc(COC(=O)c3cccc(NC(=O)C(C)Oc4ccccc4)c3)nc2s1 (centres undefined) | 10.3%
Cc1cc(C)c2c(n1)nn1c(C)c(CCC(=O)Nc3ccc(C)c(Cl)c3)c(C)nc21 | 7.21%
Cc1csc2nc(COC(=O)c3ccccc3NC(=O)c3ccccc3Cl)cc(=O)n12 | -0.731%
CNC(=O)C1CCC(Cn2c(=O)c3sccc3n(Cc3ccccc3)c2=O)CC1 (centres undefined) | 10.2%
COc1ccccc1CCNC(=O)c1cc2c(=O)n3cccc(C)c3nc2n1C | 9.14%
COc1cc(OC)c(NC(=O)C(C)n2c(=O)cc(-c3ccccc3)c3c(C)nn(C)c32)cc1Cl (centres undefined) | -11.5%
CCc1ccc(NC(=O)N2CC=C(c3c[nH]c4ccccc34)CC2)cc1 | -15.2%
CCN(CC)c1ccc(NC(=O)CCS(=O)(=O)c2cccc3nsnc23)c(C)c1 | 3.78%
COc1ccc(C(=O)NCC(c2cccnc2)N2CCc3ccccc3C2)cc1 (centres undefined) | -10.4%

Structure (SMILES) | inhibition
CCOC(=O)c1[nH]c(C)c(CCC(=O)Nc2cc(Cl)ccc2C)c1C | -5.55%
COc1cccc(COC(=O)c2nn(-c3ccccc3)nc2N)c1 | 13.6%
O=C(CCCn1cnc([N+](=O)[O-])n1)Nc1cccc(O)c1 | active: 34.7%
O=C(NCCS(=O)(=O)N1CCN(c2ccccc2F)CC1)c1cc(=O)c2ccccc2o1 | -2.8%
O=C(NCCc1ccc(Cl)cc1)c1ccc(CS(=O)(=O)Cc2ccc(F)cc2)o1 | -7.77%
O=C(Nc1ccc(F)cc1)c1ccc(-n2cnc3cccnc32)cc1 | 13.1%
COC(=O)c1c(SC)nc2ccccc2c1OCc1cccc(C)c1 | -25.2%
CC(NC(=O)c1ccc(Cl)cc1)c1nnc(SCc2ccc([N+](=O)[O-])cc2)n1C (centres undefined) | active: 32.3%
COc1ccc(NC(=O)C2CCCN(c3cc(C)nc4ncnn34)C2)cc1 (centres undefined) | active: 30.1%
COCCn1c(C)cc(O)c(C(c2ccccc2)N2CCN(c3ccc(F)cc3)CC2)c1=O (centres undefined) | 0.939%
Cc1ccc(CNS(=O)(=O)c2ccc(F)c(C(=O)Nc3ccc(C)c(F)c3)c2)cc1 | -2.49%
Cc1ccc(N(C)C(=O)Cn2nc(Cc3ccncc3)c3ccccc3c2=O)cc1C | 3.59%
Cc1ccccc1NC(=O)c1ccc(NC(=O)N2CCSc3ncccc32)cc1 | 11.8%
CC1CCN(S(=O)(=O)c2ccc3c(c2)N(CC(=O)NCc2ccccc2Cl)C(=O)CO3)CC1 | -4.25%
COc1cccc(NC(=O)c2sc(-n3nc(C)c(Cc4ccccc4Cl)c3C)nc2C)c1 | 13.5%
COc1ccc(OC)c(-n2c(=O)[nH]c3cc(C(=O)NCCc4ccc(OC)c(OC)c4)ccc3c2=O)c1 | 12.8%
COc1ccc(NCc2nc3ccccc3n2CCOc2ccccc2C)cc1 | 4.04%
Cc1ccc(OCc2cc(=O)n3c4c(sc3n2)CCCC4)c(C)c1 | 25.4%
O=c1c(S(=O)(=O)c2ccccc2)cn(Cc2ccc(F)cc2)c2cc(N3CCCC3)c(F)cc12 | 5.09%
COc1cccc(CNC(=O)C2CCC(CNS(=O)(=O)c3cccs3)CC2)c1 (centres undefined) | -1.91%
CCCC(=O)N(c1ccc2oc3c(c2c1)CCCC3)S(=O)(=O)c1ccc(CC)cc1 | -22.2%
COc1ccc(Cn2ccc3nc(C)c(C(=O)Nc4ccc(OC)c(OC)c4)cc3c2=O)cc1 | 6.83%
COc1cccc(N2CCN(C(=O)CCn3nc(C)c(S(=O)(=O)N4CCCC4)c3C)CC2)c1 | 20.1%
O=C(CSc1nc(=O)n(Cc2ccncc2)c2c1CCC2)Nc1ccccc1 | -5.1%

Structure (SMILES) | inhibition
CCCN(CCC)C(=O)c1c[nH]c2ccc(S(=O)(=O)N(C)c3ccc(Cl)cc3)cc2c1=O | -15.6%
COc1cccc(CNC(=O)CCc2c(C)c3cc4c(C)coc4cc3oc2=O)c1 | -1.47%
OCCN1CCN(CCCN2c3ccccc3Sc3ccc(Cl)cc32)CC1 | active: 85.7%
Cc1ccccc1C(=O)Nc1cccc(-c2nc3cccnc3s2)c1 | 4.08%
COc1ccc(C(CNC(=O)COc2cc(C)c(Cl)c(C)c2)N2CCCCC2)cc1 (centres undefined) | -13.3%
Cc1ccc(Cn2cc(S(=O)(=O)c3ccccc3)c(=O)c3cc(F)c(N4CCOCC4)cc32)cc1 | -8.47%
Cn1ccc2cc(S(=O)(=O)N3CCN(C(=O)Nc4cccc(F)c4)CC3)ccc21 | -15.4%
COc1ccc(NC(=O)C(c2ccc(OC)cc2)N(C)C(=O)Cc2cccs2)cc1 (centres undefined) | 6.3%
CC(C)(Oc1ccc(Cl)cc1)C(=O)Nc1ccc(-c2nc3ncccc3o2)cc1 | 5.93%
COc1ccccc1N1CCN(S(=O)(=O)CCNC(=O)c2cc(=O)c3ccccc3o2)CC1 | 2.59%
CCCCOC(=O)c1ccc(NC(=O)C2(c3cccs3)CCOCC2)cc1 | 6.44%
COc1ccccc1-c1cc(C(=O)Nc2c(C)nn(Cc3ccc(Cl)cc3)c2C)no1 | 4.69%
CCOC(=O)c1c(NC(=O)CSc2cn(CCNC(=O)c3ccc(OC)cc3)c3ccccc23)sc2c1CCC2 | -10.8%
COc1ccc(-c2nnc(SCC(=O)Nc3cccc(C)c3)s2)cc1 | -14.1%
CC(=O)N1CCc2cc(CNS(=O)(=O)c3cccs3)ccc21 | 21%
CCOc1ccccc1N(C)C(=O)c1sc2nc3n(c(=O)c2c1C)CCCC3 | -23%
COc1ccc(-c2cn3nc(N4CCCC(C(=O)Nc5ccccc5F)C4)sc3n2)cc1 (centres undefined) | -12.3%
Cc1nn(CC(=O)Nc2ccc(C(C)C)cc2)c(=O)c2c(C)n(-c3ccc(Cl)cc3)nc12 | -2.29%
COc1ccc(NC(=O)CSc2nccn2C2CCCC2)cc1OC | -24.4%
CCCCN(CCCNC(=O)c1cc(Nc2ccc(OC)cc2OC)nc2ccccc12)Cc1ccccc1 | 8.87%
Cc1ccccc1OCC(=O)Nc1ccc(OCc2cc(=O)n3ccccc3n2)cc1 | -2.72%
Cc1ccc(CNC(=O)c2ccc3oc(=O)n(Cc4ccccc4)c3c2)cc1 | 8.46%
O=C(CSc1nc2c(c(=O)[nH]1)CN(Cc1ccc3c(c1)OCO3)CC2)Nc1cc(F)ccc1F | 7.09%
CCCn1c2ccccc2c2cnn(CC(=O)Nc3ccccc3OC)c(=O)c21 | 16.1%

Structure (SMILES) | inhibition
COc1cc(NC(=O)Nc2nnc(N3CCCCC3)s2)cc(OC)c1 | -21.7%
Cc1cccc(NC(c2cccc(Cl)c2)c2ccc3cccnc3c2O)n1 (centres undefined) | -21.6%
Cc1ccc2c(CC(=O)Nc3ccc(S(=O)(=O)N4CCC(C)CC4)cc3)coc2c1 | 6.42%
Cc1nn(-c2ccccc2)c2c1N(CCCC(=O)NCc1ccc(OC(C)C)cc1)C(=O)CS2 | 0.727%
CC1CCc2nc3ccc(S(=O)(=O)N4CCC(C(=O)NCc5ccccc5Cl)CC4)cc3c(C(=O)O)c2C1 (centres undefined) | 1.19%
O=c1c2[nH]c3ccccc3c2nc(SCc2ccccc2F)n1-c1ccc(F)cc1 | 26.2%
CCCCSCCCNC(=O)c1cn(CC)c2ccc(S(=O)(=O)N3CCOCC3)cc2c1=O | -9.29%
COc1ccc(S(=O)(=O)N2CCC(C(=O)Nc3ccc(Oc4ccccc4)cc3)CC2)cc1OC | 13.4%
O=S(=O)(c1ccc(OCC(O)CN2CCN(c3ccccc3O)CC2)cc1)N1CCOCC1 (centres undefined) | active: 69.4%
COc1ccc(NC(=O)c2ccc(-c3nc(COc4ccccc4)c(C)o3)cc2)cc1 | 6.96%
Cc1ccc(-c2nn(-c3ccccc3)cc2/C=N/NC(=O)c2ccc3c(c2)OCO3)cc1 | active: 31.8%
COC(=O)c1ccc(NC(=O)c2cc3cc(C)ccc3n2C)cc1 | 9.18%
COc1ccc(OC)c(NC(=O)C(CCSC)NS(=O)(=O)c2cccs2)c1 (centres undefined) | 6.45% and active: 32.4%
COc1cc(OC)cc(C(=O)NC2CC3CCC(C2)N3Cc2ccco2)c1 (centres undefined) | active: 48.2%
CCCn1c(Nc2cccc(OC)c2)nc2ccccc21 | active: 38.8%
COc1ccc(-c2nc(SCC(=O)N3CCC(C)CC3)n[nH]2)cc1 | 10.3%
Nc1c(C(=O)Nc2ccc(Cl)cc2F)sc2nc(-c3cccs3)ccc12 | 3.23%
COc1ccc(Cl)cc1N(C(=O)c1ccco1)C(C(=O)NC1CCCC1)c1ccncc1 (centres undefined) | active: 39.4%
Cc1ccc(Cl)cc1NC(=O)/C(C#N)=C\c1cn(Cc2ccc(F)cc2)c2ccccc12 | 1.57%
COc1ccc(C(=O)Nc2ccc(C(=O)OCc3cc(=O)n4nc(C(C)C)sc4n3)cc2)cc1 | 0.675%
OC1(CNCc2ccccc2)C2CC3CC(C2)CC1C3 (centres undefined) | active: 56.5%
Fc1ccc(CNc2cc(-c3ccccc3)nc3nncn23)cc1 | -4.12%
